# Data as given in ChEMBL document CHEMBL4888484, “Replenishing the malaria drug discovery pipeline: Screening and hit evaluation of the MMV Hit Generation Library 1 (HGL1) against asexual blood stage Plasmodium falciparum ,using a nano luciferase reporter read-out” (2022).
# Hit rate of the full screen: of about 150,000 compounds, about 540 (0.36%) showed an effect of 50% or more. The list shows a part of the results.
# Test system: Plasmodium falciparum
# Experiment: Primary screen in NF54 nanoGlo assay, in single point, at 2uM, 72h; a lower Z score goes with more inhibition
# Format: functional, Erythrocyte
# Conditions: timepoint 72 hour
SMILES,% Inhibition [%],Z score
CCc1ncncc1C(=O)Nc1ccc(Br)c(C)n1,-1,0.12
Nc1c(C(=O)N2CCCCC2)sc(=S)n1-c1ccc(F)c(Cl)c1,-4,0.5
Cn1cncc1-c1ccc([C@@H]2CNCCO2)cc1,17,-2.04
O=C(Nc1ccccc1C#Cc1ccccc1)c1ccc(-c2ccccc2)cc1,-1,0.17
COC(=O)N[C@@H](C)c1ccc(C(C)C)cc1,-13,1.88
CCC(=O)N1CC[C@H](C(=O)NC(C)(C)c2cc(C(F)(F)F)on2)C1,-6,0.78
O=C(Nc1ccsc1)Nc1ccn(CCc2ccncc2)n1,1,-0.08
CC(NS(=O)(=O)N(C)C(C)C)C1CCCO1 (stereo unspecified),-8,1.17
O=C(c1ccc2c(=O)n(-c3ccccc3)c(N3CCCCC3)nc2c1)N1CCN(c2ccccc2)CC1,-10,1.92
COc1ccnc(C(=O)N2Cc3nc(C)n(C)c(=O)c3C2)c1,-21,2.02
O=C1c2ccccc2N[C@H](c2ccc(O)c(Br)c2)N1c1ccc2c(c1)OCCO2,-5,0.46
O=C(c1ccccc1)N1C[C@@H]2Oc3ncccc3S(=O)(=O)N[C@@H]2C1,-9,1.3
Cc1cc(C)c2c(C)c(C(=O)Nc3ccc(-n4cnnn4)cc3)oc2c1,1,-0.17
Cc1cc(C)n2ncc(-c3cc(C4CCC4)nc(N)c3C#N)c2n1,-10,1.4
CC1CCC(NC(=O)Cn2nccc2-c2cccnc2)CC1 (stereo unspecified),-5,0.98
Cc1ccccc1[C@]1(O)CCN(C(=O)c2ccc(N3CC(=O)NC3=O)cc2)C1,-11,1.06
Cc1ncsc1CCNC(=O)N(C)Cc1ccoc1,-16,1.56
CCn1c(NCc2cc(Br)ccc2O)nc2ccccc21,4,-0.42
N#Cc1ccccc1Cn1nc(-c2cccnc2)n(C2CC2)c1=O,-1,0.16
CN(C(=O)CC#N)[C@@H]1c2ccccc2N(C(=O)OC(C)(C)C)C[C@H]1O,-16,1.84
COc1ccc(-c2c(C)nn3c(N4CCC(C(=O)NC5CC5)CC4)cc(C)nc23)cc1OC,43,-5.65
CN(C)C(=O)CCc1nc(-c2cccc3c2ccn3C)nn1C(C)(C)C,-17,1.83
O=C(c1c[nH]c2ncnn2c1=O)N1C[C@@H]2CC[C@H]1CN(Cc1ccccn1)C2,-2,0.3
O=C(c1ccccc1-n1cnnn1)N1CC2CC=CCC2C1 (stereo unspecified),3,-0.42
O=c1c2occc2ccn1CCNS(=O)(=O)C1CC1,-12,2
CCCc1ccc(CCCC(=O)N2CCNC(=O)[C@@H]2C)cc1,0,-0.03
COc1ccc(Cn2nnc3cc(C(=O)Nc4ccc(C)cc4C)ccc32)cc1,-2,0.34

SMILES,% Inhibition [%],Z score
C#CCOC[C@@H](O)CN(Cc1c(C)nn(-c2ccccc2)c1Oc1ccc(Cl)cc1)C1CC1,10,-1.24
O=S(=O)(C1C[C@@H]2CC[C@H]1C2)N1CCc2cnccc21 (stereo partly specified),3,-0.39
C[C@]1(C(=O)O)CCN(C(=O)CCC=Cc2ccccc2)C1,-6,0.69
COc1ccc(NC(=O)Cc2c(C)nn(-c3nc(C)cs3)c2C)cc1,0,0.03
Cc1c(C(=O)Nc2ccccc2)[n+]([O-])cn1-c1ccc2[nH]c(CC(C)C)nc2c1,-12,1.83
FC1(F)CC(COc2ncc(Br)cn2)C1,-4,0.63
O=C(CN1C(=O)N[C@]2(CCc3ccccc3C2)C1=O)Nc1ccc(Cl)cc1F,-5,0.81
Cc1cc(C)c(CNS(=O)(=O)CC2CCOCC2)c(C)c1,-11,1.54
COc1c(F)c(F)c(CN2CCCCCC2=O)c(F)c1F,-6,0.76
Cn1c(=O)[nH]c(=O)c2nc(C=Cc3ccccc3F)c(O)nc21,-5,0.87
COCCN1C[C@]2(CCCN(C(=O)c3cc(F)ccc3OC)C2)CCC1=O,-7,1.49
COCCN(Cc1c(C(C)C)nn(-c2ccccc2)c1Oc1ccccc1F)C(=O)c1ccccc1,8,-0.96
O=C(c1ccccc1Cl)N1C2CCC1CC(n1cccn1)C2 (stereo unspecified),13,-1.63
Cc1cc(=O)c(C(=O)NCc2cccnc2N2CCCCCCC2)c[nH]1,-18,2.87
COCc1ccc(C(=O)N2CCC([C@H](Cc3ccc(F)cc3F)N(C)C(=O)c3cccnc3)CC2)o1,2,-0.24
COc1cccc(C(=O)N2CCN(C(=O)C(C)C)[C@@H]3CS(=O)(=O)C[C@@H]32)c1C,0,0.04
Cc1cc(CN2CCCN(C(=O)c3cccc(N(C)C)c3)CC2)no1,-8,1.07
COc1ccccc1CCNS(=O)(=O)C1CON(C)C1c1cccc(C(F)(F)F)c1 (stereo unspecified),0,0
Cc1nc(C(N)=O)c2c(n1)n(-c1ccc(C)c(C)c1)c(=O)n2Cc1ccccc1,0,0.03
Cc1c(C(=O)NC[C@H]2CCCO2)cccc1-n1c(C)nc2cccnc21,0,-0.04
Cc1nc(C(C)C)ncc1C(=O)N1[C@@H]2CC[C@H]1CNC(=O)C2,5,-1.07
CCC(=O)NCc1nc2c(n1C)CN(C(=O)c1cccc(Br)c1)CC2,-10,1.12
Cc1ccc2c(C3=CCN(C(=O)c4cnc5[nH]c(=O)[nH]c(=O)c5c4)CC3)c[nH]c2c1,6,-1.15
Cc1cnc(C(=O)N[C@H]2CCC(=O)NC2=O)cn1,4,-0.69
CCn1nccc1C(=O)NCCc1ccncc1,-8,0.9
COc1cc(-c2ccc(-c3cnco3)cc2)cc(OC)c1OC,-17,1.62
